Data set [1] concerns HeLa Kyoto. The data set is described as follows: solubility in G1/S (NP-40 vs SDS abundance) (log2 ratio); higher = more soluble. The note with it: cell cycle stage: G1/S.
Data set [2] relates to HeLa Kyoto. The data set can be described thus: melting temperature (median over replicates), in situ; higher = more thermally stable.
In data set [3] the test system is HeLa Kyoto. The data set is described as follows: thermal stability score vs G1/S (z-score of summed log2 fold changes over temperatures); higher = more thermally stable than in G1/S.
Data set [4] relates to HeLa Kyoto. The data set can be described thus: solubility change mitosis vs G1/S (difference of NP-40 vs SDS log2 ratios) (log2 ratio difference); higher = more soluble in mitosis.
[5] abbreviates: cell cycle stage: early G1 (4.5 h after nocodazole release).
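Throughout, for melting temperature (median over replicates), in situ: HeLa Kyoto cells synchronized by double thymidine or nocodazole block, proteins quantified by TMT10plex mass spectrometry, three independent biological replicates.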
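Throughout, for solubility change mitosis vs G1/S (difference of NP-40 vs SDS log2 ratios): synchronized HeLa Kyoto cells (double thymidine block for G1/S, nocodazole release for mitosis), protein amounts in NP-40 versus SDS lysates quantified by mass spectrometry, three biological replicates.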
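Throughout, for solubility in G1/S (NP-40 vs SDS abundance): HeLa Kyoto cells arrested at G1/S by double thymidine block, proteins quantified by TMT10plex mass spectrometry in mild NP-40 versus SDS extracts, three biological replicates.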
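Throughout, for thermal stability score vs G1/S (z-score of summed log2 fold changes over temperatures): synchronized HeLa Kyoto cells, proteins quantified by TMT10plex mass spectrometry, three biological replicates, mitosis taken 0.5 h after nocodazole release, G1/S directly after double thymidine block.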

TSN (sequence left out): in data set [1], the “solubility in G1/S (log2)” value was -0.145. In addition, the melting temperature in data set [2] (cell cycle stage: G1/S) was determined as 53.6 °C; in data set [2] (cell cycle stage: mitosis), 54.1 °C. In addition, the thermal stability score was determined as 1.99 in data set [3] (setting [5]) and 1.25 in data set [3] (cell cycle stage: mitosis). For the same substance, the “solubility change mitosis (log2)” value in data set [4] is -0.134.

Consider USP7 (sequence left out), for which the “solubility in G1/S (log2)” value in data set [1] is -0.24. In addition, the figures for the melting temperature in data set [2] (cell cycle stage: G1/S) and in data set [2] (cell cycle stage: mitosis) were 48.7 °C and 49.4 °C, respectively. In addition, the thermal stability score in data set [3] (setting [5]) came out at 1.73; in data set [3] (cell cycle stage: mitosis) it was 3.53. The “solubility change mitosis (log2)” value in data set [4] was -0.168.

The values are drawn from the supplement of paper PMC5998384.
